Test results taken from PubChem BioAssay AID686979 (National Center for Advancing Translational Sciences (NCATS), 2013).
Where “and” joins values, the source holds several entries; their conditions need not be identical. Equal entries are not always repeated. Screen size: about 420,000 compounds; about 50,000 (12%) were called active. The inconclusive results got no clear call from the source; some entries with a clear call stand among them for comparison. Calls follow the shape of the dose curve; as a rule, active = well fitted inhibition curve with a large enough effect; inconclusive = small, poorly fitted or top-dose-only effect; inactive = flat fitted curve, though single readings scatter. Potencies beside an inconclusive call are fits to weak or partial responses and may not hold up.

Test: qHTS for Inhibitors of human tyrosyl-DNA phosphodiesterase 1 (TDP1): qHTS in cells in presence of CPT; also: nearly all actives have a fitted effect of over 55% in size
Settings: chicken DT40 Tdp1-/-;hTDP1 cells + 20 nM CPT, ATP luminescence, 48 h; activity change, negative = growth inhibition: at 46.2 µM (top of the series) unless noted
Outline: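 Chicken DT40 Tdp1-/- cells complemented with human TDP1, 400 cells/well, exposed to compounds plus 20 nM camptothecin for at least 48 h at 37 C; viability read as ATP content by CellTiter-Glo luminescence.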
% is scaled to controls: 0 for no effect and ±100 for the full control effect; potency is read from the fitted curve at half-maximal effect; tags tell the direction and shape of the fitted curve.

Question: For `Nc1cc(-c2nc3ncccc3o2)ccc1Cl`, which activity change, negative = growth inhibition is on record?
Answer: The activity change, negative = growth inhibition was inconclusive: -34.6% [inhibitor].

Question: With `CC(C)(C)OC(=O)CN1C(=O)NC2(CCCc3ccccc32)C1=O` (stereo not drawn) as the molecule, how does the Potency read?
Answer: Its Potency is inconclusive: 0.731 µM [inhibitor, full curve, poor fit].

Question: Which Potency does the source give for `Cc1ccc(NC(=S)N2CCCN(Cc3ccc(F)cc3)C2)c(C)c1` here?
Answer: The Potency was inconclusive: 29.1 µM [inhibitor, single point].

Question: For `C=CCN(C(=O)c1ccccn1)C(C(=O)NCc1ccccc1)c1ccccc1F` (stereo not drawn), which Potency is on record?
Answer: Its Potency is inconclusive: 16.4 µM [inhibitor, single point].

Question: Which Potency does the source give for `Cc1ccccc1C1c2[nH]c3ccccc3c2CCN1Cc1cccn1-c1ncccn1` (stereo not drawn) here?
Answer: The Potency was inconclusive: 20.6 µM [inhibitor, single point].

Question: Which Potency does the source give for `COCCCN1C(=O)C(CC(=O)NCCN2CCOCC2)CC(C(=O)N2CCOCC2)=C1C` (stereo not drawn) here?
Answer: The Potency was “inactive”.

Question: Which Potency does the source give for `Cc1cc(Cl)cc(Cl)c1OCCOc1cccc2cccnc12` here?
Answer: The Potency was active: 23.1 µM.

Question: Which Potency does the source give for `COCc1c(C(=O)OCC(=O)N2c3ccccc3NC(=O)C2(C)C)oc2ccccc12` here?
Answer: Its Potency is inconclusive: 29.1 µM [inhibitor, single point].

Question: With `CN(C)S(=O)(=O)c1ccc(N2CCCC2)c(C(=O)N2CCN(S(=O)(=O)c3ccc(F)c(F)c3)CC2)c1` as the molecule, how does the Potency read?
Answer: Its Potency is “inactive”.

Question: Which Potency does the source give for `CCOc1ccc(NC(=O)CCN2C(=O)CSc3ccccc32)cc1` here?
Answer: Its Potency is inconclusive: 23.1 µM [inhibitor, single point].

Question: Which Potency does the source give for `CC(/C=N/NC(=O)CSc1ccccn1)=C\c1ccc(C(C)C)cc1` here?
Answer: Its Potency is inconclusive: 18.4 µM [inhibitor, partial curve].

Question: With `O=C(c1ccco1)N1CCN(Cc2c(Cl)cccc2Cl)CC1` as the molecule, how does the Potency read?
Answer: The Potency was inconclusive: 18.4 µM [inhibitor, partial curve].

Question: For `CC(=O)Oc1ccccc1Cn1c(C)c(C(=O)NCc2cccc([N+](=O)[O-])c2)sc1=O`, which Potency is on record?
Answer: Its Potency is inconclusive: 20.6 µM [inhibitor, single point].

Question: Which Potency does the source give for `O=C(NC1CCCCCC1)C1CCC(=O)N(Cc2ccccc2F)C1` (stereo not drawn) here?
Answer: The Potency was “inactive”.

Question: For `Cc1cccc(NC(=O)CSc2nc3c([nH]c4ccccc43)c(=O)n2-c2ccc(F)cc2)c1C`, which Potency is on record?
Answer: Its Potency is inconclusive: 29.1 µM [inhibitor, single point].

Question: For `COc1cccc(C(=O)NNC(=O)C(=O)Nc2cccc(Cl)c2C)c1`, which Potency is on record?
Answer: Its Potency is inconclusive: 18.4 µM [inhibitor, single point].

Question: With `CC(=O)c1ccc(N2CCN(c3ccc(C(F)(F)F)cn3)CC2)cc1` as the molecule, how does the Potency read?
Answer: Its Potency is “inactive”.

Question: Which Potency does the source give for `Cc1cccc(OCC(=O)Nc2ccc3c(c2)N(C)C(=O)c2ccccc2S3)c1` here?
Answer: The Potency was active: 10.3 µM.

Question: With `N#Cc1ccc(NC(=O)c2cc(-c3cccs3)on2)cc1` as the molecule, how does the Potency read?
Answer: Its Potency is “inactive”.

Question: For `Oc1[nH]c2ccc(Br)cc2c1N=Nc1ccc(F)cc1`, which Potency is on record?
Answer: The Potency was “inactive”.

Question: For `O=C(Cc1cccs1)N1CCCC(c2nc(-c3ccc(S(=O)(=O)N4CCCC4)cc3)no2)C1` (stereo not drawn), which Potency is on record?
Answer: Its Potency is inconclusive: 29.1 µM [inhibitor, single point].

Question: With `CS(=O)(=O)c1ccc(C(=O)OCC(=O)Nc2ccc(OC(F)(F)F)cc2)cc1[N+](=O)[O-]` as the molecule, how does the Potency read?
Answer: Its Potency is active: 8.91 µM.

Question: For `O=C(O)c1c(C(=O)O)c(-c2ccc(Br)cc2)n2c1CSC2`, which Potency is on record?
Answer: Its Potency is “inactive”.

Question: For `CC1CCN(Cc2c(C(=O)N/N=C/c3cc(Cl)ccc3O)nnn2-c2nonc2N)CC1`, which Potency is on record?
Answer: Its Potency is active: 4.61 µM.

Question: For `Oc1ccc(/C=N/Nc2cc(N3CCOCC3)nc(N3CCOCC3)n2)cc1O`, which Potency is on record?
Answer: The Potency was inconclusive: 16.4 µM [inhibitor, single point].

Question: Which Potency does the source give for `COc1cccc(N(CC(=O)NCc2ccccc2)C(=O)CCC(=O)Nc2nccs2)c1` here?
Answer: Its Potency is “inactive”.

Question: Which Potency does the source give for `O=C(CN(CCc1ccccc1)S(=O)(=O)c1ccc(Cl)cc1)N/N=C/c1ccc2c(c1)OCO2` here?
Answer: Its Potency is “inactive”.

Question: For `O=C(NCCN1CCCC1)C(c1ccccc1)c1ccccc1`, which Potency is on record?
Answer: The Potency was “inactive”.

Question: Which Potency does the source give for `Cc1ccc(C(=O)N/C(=C\c2cn(S(=O)(=O)N(C)C)c3ccccc23)C(=O)NCCCn2ccnc2)cc1` here?
Answer: The Potency was inconclusive: 16.4 µM [inhibitor, single point] and inconclusive: 29.1 µM [inhibitor, single point].

Question: Which Potency does the source give for `COc1ccc(NC(=O)c2ccco2)cc1NC(=O)COc1ccccc1Cl` here?
Answer: The Potency was active: 6.51 µM.

Question: With `COc1cc2c3c(c1OC)C1(C=CC(=NO)C=C1)CC3N(C(C)=O)CC2` (stereo not drawn) as the molecule, how does the Potency read?
Answer: Its Potency is “inactive”.

Question: Which Potency does the source give for `CCCCC(=O)OCc1c(-c2cccc(OC)c2)ncc2ccccc12` here?
Answer: Its Potency is inconclusive: 29.1 µM [inhibitor, partial curve].

Question: For `Cc1ccc(S(=O)(=O)N2CCCC2)cc1C(=O)NCc1ccccn1`, which Potency is on record?
Answer: Its Potency is “inactive”.

Question: Which Potency does the source give for `CCOc1ccc(-n2c(SCC(=O)NCc3ccco3)nnc2-c2c[nH]c3ccccc23)cc1` here?
Answer: The Potency was inconclusive: 29.1 µM [inhibitor, single point].

Question: Which Potency does the source give for `O=C(c1ccccc1C(=O)N1CCN(c2ccc(F)cc2)CC1)N1CCN(c2ccc(F)cc2)CC1` here?
Answer: Its Potency is inconclusive: 13 µM [inhibitor, partial curve].

Question: Which Potency does the source give for `CCN(c1ccccc1)S(=O)(=O)c1cc(C(=O)OC(C)C(=O)Nc2ccc3c(c2)OCCO3)ccc1C` (stereo not drawn) here?
Answer: The Potency was inconclusive: 29.1 µM [inhibitor, single point].

Question: With `Cc1cc(C(=O)NC2CCCc3c2cnn3-c2ccc(C(C)(C)C)cc2)nn1C` (stereo not drawn) as the molecule, how does the Potency read?
Answer: Its Potency is active: 8.2 µM.

Question: For `CC1(C)CC(=O)C2=C(C1)N(CC1CCCO1)C(=O)C2(O)C(F)(F)F` (stereo not drawn), which activity change, negative = growth inhibition is on record?
Answer: The activity change, negative = growth inhibition was inconclusive: 4.28% [inhibitor].

Question: Which Potency does the source give for `COC(=O)CSc1nnc2n(-c3ccc(OC)cc3)c(=O)c3c4c(sc3n12)CCCCC4` here?
Answer: Its Potency is “inactive”.

Question: Which Potency does the source give for `Clc1ccc(N2CCN(Cc3ccco3)CC2)cc1` here?
Answer: The Potency was “inactive”.

Question: With `Cc1ccc(-n2c(C)cc(C(=S)N3CCOCC3)c2C)cc1C` as the molecule, how does the Potency read?
Answer: Its Potency is active: 23.1 µM.

Question: With `C=CCSc1nnc(NC(=O)c2nc(SCC)ncc2Cl)s1` as the molecule, how does the Potency read?
Answer: The Potency was inconclusive: 29.1 µM [inhibitor, single point].

Question: With `Cc1ccc(S(=O)(=O)Nc2ccc(-c3nc4ccc(C)cc4s3)cc2)cc1` as the molecule, how does the Potency read?
Answer: The Potency was inconclusive: 20.6 µM [inhibitor, partial curve, poor fit].

Question: Which Potency does the source give for `CC(C)COc1ccc(-c2cc(C(=O)NN)[nH]n2)cc1` here?
Answer: Its Potency is inconclusive: 29.1 µM [inhibitor, single point].

Question: With `COc1ccc(CN2CCCN(CC(=O)Nc3ccc4c(c3)OCCO4)S2(=O)=O)cc1` as the molecule, how does the Potency read?
Answer: The Potency was inconclusive: 29.1 µM [inhibitor, single point].

Question: Which Potency does the source give for `COc1ccc(-c2c(C)nn3c(N4CCOCC4)cc(C)nc23)cc1OC` here?
Answer: The Potency was “inactive”.

Question: Which Potency does the source give for `CCOC(=O)c1c([N+](=O)[O-])c(C)[nH]c(=O)c1C#N` here?
Answer: Its Potency is “inactive”.

Question: Which Potency does the source give for `O=C(O)c1c2c(nc3ccccc13)CCCC2` here?
Answer: Its Potency is “inactive”.

Question: For `CC(C)Cn1c(SC(C)C(=O)NCC2CCCO2)nc2ccc(Cl)cc2c1=O` (stereo not drawn), which Potency is on record?
Answer: The Potency was inconclusive: 29.1 µM [inhibitor, single point].

Question: Which Potency does the source give for `COc1ccccc1CNC(=O)CCCn1c(=O)c2ccccc2n(Cc2ccc(C)cc2)c1=O` here?
Answer: The Potency was inconclusive: 1.46 µM [inhibitor, full curve, poor fit].

Question: For `Cc1ccc(C(=O)N2CCC(C(N)=O)CC2)cc1NC(=O)c1nsc2ccccc12`, which Potency is on record?
Answer: The Potency was inconclusive: 29.1 µM [inhibitor, single point].

Question: Which Potency does the source give for `CCc1ccc(C(=O)OCC(=O)c2c(N)n(CC(C)C)c(=O)n(C)c2=O)cc1` here?
Answer: The Potency was inconclusive: 29.1 µM [inhibitor, single point].

Question: With `O=C(Nc1cc(Br)ccc1F)c1nc[nH]c1C(=O)NCc1ccccc1` as the molecule, how does the Potency read?
Answer: The Potency was inconclusive: 29.1 µM [inhibitor, single point].

Question: With `Cc1nc(-c2ccc(Cl)cc2)sc1C1(C)CC(c2ccc(C#N)cc2)=NO1` (stereo not drawn) as the molecule, how does the Potency read?
Answer: Its Potency is inconclusive: 23.1 µM [inhibitor, single point].

Question: For `CC1(C(=O)NS(=O)(=O)c2ccccc2)CCN1C(=O)C1(c2ccc(Cl)cc2)CCC1` (stereo not drawn), which Potency is on record?
Answer: The Potency was inconclusive: 16.4 µM [inhibitor, single point].

Question: Which Potency does the source give for `Cc1ccccc1/C(=N\S(=O)(=O)c1ccc(Br)cc1)Nc1ccccc1` here?
Answer: Its Potency is inconclusive: 18.4 µM [inhibitor, partial curve, poor fit].

Question: With `CCOC(=O)C1CCN(C(=O)c2nn(-c3ccc(OC)cc3)c(=O)c3c2c2ccccc2n3C)CC1` as the molecule, how does the Potency read?
Answer: The Potency was inconclusive: 23.1 µM [inhibitor, single point].

Question: Which Potency does the source give for `COC(=O)c1cccc(C23CC4(C2)[C@H](CN(Cc2cccnc2)[C@@H]4c2ccccc2)C3c2ccc(Cl)nc2)c1` (stereo partly drawn) here?
Answer: The Potency was inconclusive: 25.9 µM [inhibitor, single point].

Question: With `CCOc1ccccc1N(CC(=O)Nc1ccc(OC)c(OC)c1)S(=O)(=O)c1ccccc1` as the molecule, how does the Potency read?
Answer: The Potency was inconclusive: 29.1 µM [inhibitor, single point].

Question: Which Potency does the source give for `Cc1ccc(-c2n[nH]c(=O)c3ccccc23)cc1S(=O)(=O)NCC1CCCO1` (stereo not drawn) here?
Answer: The Potency was inconclusive: 18.4 µM [inhibitor, single point].

Question: Which Potency does the source give for `COc1ccc(N2CCN(C(=O)Nc3ccc(S(=O)(=O)N(C)C)cc3)CC2)cc1` here?
Answer: Its Potency is inconclusive: 18.4 µM [inhibitor, partial curve].

Question: With `COc1ccc(N(CC(=O)NCCc2ccc(Cl)cc2)S(=O)(=O)c2c(C)nn(C)c2C)cc1` as the molecule, how does the Potency read?
Answer: Its Potency is inconclusive: 29.1 µM [inhibitor, single point].

Question: With `Cc1cc(C(=O)CSc2nc3ccc(Cl)cc3[nH]2)c(C)n1Cc1ccco1` as the molecule, how does the Potency read?
Answer: Its Potency is active: 20.6 µM.

Question: Which Potency does the source give for `C=CCn1c(=S)[nH]c2nc3c(cc2c1=O)CCCC3` here?
Answer: The Potency was inconclusive: 32.6 µM [inhibitor, single point].

Question: Which Potency does the source give for `COc1ccc(/C(C)=N/NC(=O)CNC(=O)COc2ccccc2)c(OC)c1` here?
Answer: The Potency was “inactive”.

Question: Which Potency does the source give for `CC1CCN(S(=O)(=O)c2cc(C(=O)N3CCN(c4ccccc4F)CC3)n(C)c2)CC1` here?
Answer: Its Potency is inconclusive: 20.6 µM [inhibitor, single point].

Question: For `O=C(CSc1nnc(COc2cccc3cccnc23)o1)c1ccc(F)cc1`, which Potency is on record?
Answer: The Potency was active: 4.11 µM.

Question: With `Cc1nn(C)c2c1c(C(F)(F)F)cc(=O)n2CC(=O)N1CCC(C)CC1` as the molecule, how does the Potency read?
Answer: The Potency was inconclusive: 7.31 µM [inhibitor, partial curve].
